The campaign covered roughly 310,000 compounds. About 14,000 (4.5%) showed an effect of 50% or more. Effects have a minus sign here. Some of the results follow.
What follows are compounds tested against human ether-à-go-go-related gene (hERG) potassium channel (human, UniProt Q12809) (assay: primary screen, population patch clamp on CHO cells stably expressing hERG).
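Also: peak tail current of the secondary pulse compared with the same well before compound.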

human ether-à-go-go-related gene (hERG) potassium channel, sequence (Q12809 whole entry, looked up): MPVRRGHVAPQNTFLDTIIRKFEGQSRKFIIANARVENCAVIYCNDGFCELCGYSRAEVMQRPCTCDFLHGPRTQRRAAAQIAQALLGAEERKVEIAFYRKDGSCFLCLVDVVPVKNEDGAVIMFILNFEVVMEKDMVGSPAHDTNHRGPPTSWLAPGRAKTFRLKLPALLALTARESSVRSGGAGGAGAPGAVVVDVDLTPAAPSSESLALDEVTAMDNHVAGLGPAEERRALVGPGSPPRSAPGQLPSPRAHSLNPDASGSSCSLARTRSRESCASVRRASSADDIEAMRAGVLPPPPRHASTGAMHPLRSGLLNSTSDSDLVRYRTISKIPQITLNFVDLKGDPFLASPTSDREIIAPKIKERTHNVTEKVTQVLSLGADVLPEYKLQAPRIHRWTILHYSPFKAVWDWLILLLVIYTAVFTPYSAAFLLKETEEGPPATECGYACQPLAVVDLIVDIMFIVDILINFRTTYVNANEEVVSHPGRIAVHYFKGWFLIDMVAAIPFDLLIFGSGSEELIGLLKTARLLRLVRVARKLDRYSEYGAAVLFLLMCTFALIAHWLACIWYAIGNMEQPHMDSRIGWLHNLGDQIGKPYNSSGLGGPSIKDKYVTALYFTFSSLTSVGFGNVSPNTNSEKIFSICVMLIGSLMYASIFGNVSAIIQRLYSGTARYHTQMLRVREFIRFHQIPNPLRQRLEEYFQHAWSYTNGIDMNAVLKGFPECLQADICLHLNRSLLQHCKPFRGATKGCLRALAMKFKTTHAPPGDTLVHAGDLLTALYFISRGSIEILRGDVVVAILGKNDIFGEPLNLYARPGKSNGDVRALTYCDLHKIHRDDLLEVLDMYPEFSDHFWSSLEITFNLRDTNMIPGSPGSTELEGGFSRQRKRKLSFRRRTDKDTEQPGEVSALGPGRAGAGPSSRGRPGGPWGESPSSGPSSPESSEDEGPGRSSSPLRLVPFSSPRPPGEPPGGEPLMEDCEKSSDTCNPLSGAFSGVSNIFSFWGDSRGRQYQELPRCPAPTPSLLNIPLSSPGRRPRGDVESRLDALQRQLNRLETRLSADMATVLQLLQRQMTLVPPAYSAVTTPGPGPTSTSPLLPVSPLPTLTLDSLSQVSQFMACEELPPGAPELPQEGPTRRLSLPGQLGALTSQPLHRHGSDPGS

Structure (SMILES)	hERG current change (%, negative = inhibition) at 10uM [%]
COc1ccc(/C=N/NC(=O)C(N)=O)c(OC)c1OC	6.45
O=C(Cn1c(=O)[nH]c2ccsc2c1=O)NC1CCCCC1	8.97
Cc1ccc(/C=N\n2c(-c3ccccc3)n[nH]c2=S)s1	15
CCCOc1ccc(C(=O)NC(=S)N2C[C@H]3C[C@H](C2)c2cccc(=O)n2C3)cc1	-9.23
CCOc1ccc(CCNC(=O)c2nn(C)c3c2CS(=O)(=O)c2ccccc2-3)cc1	-47.2
COc1ccc(C(=O)NC(=S)N2CCC(C)CC2)cc1	16.4
O=C(CC1CCCCC1)c1c(O)c2ccccc2oc1=O	-14.4
COc1ccc(CNC(=O)[C@@H](NC(=O)C2CCN(S(=O)(=O)c3ccccc3)CC2)C(C)C)cc1	21.2
COCCCn1nnnc1SCC(=O)N1c2ccccc2CC1C (stereo not drawn)	14.8
COc1ccc(Cl)cc1-c1n[nH]c(=S)o1	18
CC1(C)CC=C(NNC(=O)c2cccnc2)C(=O)C1	32.3
CCc1ccccc1NC(=S)N1CCN(c2ccccn2)CC1	-2.49
CCOc1ccc(NC(=S)N(CCOC)C(C)c2ccco2)cc1 (stereo not drawn)	-3.2
O=C(NCc1cccc(C(F)(F)F)c1)c1ccc(=O)[nH]c1	22.5
COc1ccc(N(Cc2ccccc2)S(=O)(=O)c2cccc(C(=O)Nc3ccccn3)c2)cc1	-15.5
Cc1noc(C(=O)Nc2cccnc2Cl)c1Cl	19.4
S=C1NC[C@H](CC2CCCCC2)N1CCc1cccc2ccccc12	16.4
CN(C)C(=O)Oc1cc(=O)n2c3c(cccc13)CCC2	3.81
O=C(NC1CCCCC1)N1CCCCCCC1	4.28
C=CCc1c(C)nc(-c2ccccc2)nc1N/N=C/c1ccncc1	-42.2
O=C1NCCCC1C(=O)N/N=C/c1ccc([N+](=O)[O-])cc1 (stereo not drawn)	-3.39
COc1ccccc1N1CCN(C(=O)CN(c2ccc(C)c(C)c2)S(C)(=O)=O)CC1	-6.02

Structure (SMILES)	hERG current change (%, negative = inhibition) at 10uM [%]
COC(=O)C1=C(c2cc3ccccc3o2)C[C@@H]2CC[C@H]1N2C(=O)NCc1ccc(F)cc1	-6.96
Cc1ccc(CSc2ccc(-c3ccco3)nn2)cc1	5.09
CCCN(CCC)C1Sc2ccc(C(=O)OC)cc2NC1=O (stereo not drawn)	-9.31
COc1ccc(Cn2cnc([N+](=O)[O-])c2)cc1[N+](=O)[O-]	-6.77
O=C(CCNS(=O)(=O)c1cccc2nsnc12)N1CCc2ccccc21	-8.68
COc1cc(NC(=S)NCc2ccco2)c(OC)cc1Cl	-5.96
O=C(NCc1cccnc1)C1CCN(S(=O)(=O)c2cc(Cl)ccc2Cl)CC1	-21.7
Cn1c(SCC(=O)Nc2ccc(Cl)cc2)nc(O)cc1=O	7.92
NC(=O)[C@H]1CC2(CC(c3cccc(NC(=O)CC(c4ccccc4)c4ccccc4)c3)=NO2)CN1C(=O)C(c1ccccc1)c1ccccc1 (stereo partly drawn)	8.82
CCn1c(SCC(=O)NCc2ccc(C)cc2)nnc1-c1ccncc1	-0.947
CC1CN(CC(O)COc2ccc(C(=O)c3ccccc3)cc2)CC(C)O1 (stereo not drawn)	-63.3
Cc1csc(CNC(=O)C2CCC(=O)N(CCCc3ccccc3)C2)n1 (stereo not drawn)	-12.5
N#Cc1nc(-c2ccco2)oc1N1CCN(Cc2ccccc2)CC1	-26.9
O=C(NCc1cccs1)C1CCCN(c2nc3ccccc3o2)C1 (stereo not drawn)	-45.8
O=C(C[n+]1cccc(C(=O)N/N=C/c2ccc(Br)cc2)c1)c1ccccc1	-56.5
C=CCSC1=C(C#N)C(c2ccc(OCC)cc2)CC(=O)N1 (stereo not drawn)	-14.5
Cc1ccnc(NC(=O)c2ccc3c(c2)S(=O)(=O)c2ccccc2C3=O)c1	-8.26
Cc1cccc(NC(=O)c2ccc3nccnc3c2)n1	-22.8
CCOc1ccc(NS(=O)(=O)c2ccc(NS(=O)(=O)c3ccccc3)cc2)cc1	-5.61
CCOC(=O)CSc1nnc(CNC(=O)c2ccc(OC)cc2)n1-c1ccc(OC)cc1	-20.2
O=C(Nc1ccc(S(=O)(=O)N2CCCCC2)cc1)C1CCN(C(=O)c2ccc(F)cc2)CC1	-33.7
COc1cc(Nc2ccccc2Cl)c([N+](=O)[O-])nc1[N+](=O)[O-]	0.00238

Structure (SMILES)	hERG current change (%, negative = inhibition) at 10uM [%]
Cc1ncc([N+](=O)[O-])n1CC(=O)Nc1ccc(Cl)cc1	0.883
O=S(=O)(Nc1cccc(-c2nc3cccnc3s2)c1)c1ccc2c(c1)OCCO2	4.9
COc1ccccc1N1CCN(C2CCN(S(=O)(=O)c3ccc(C)cc3)CC2)CC1	-36.4
CCCc1ccc(-c2cc(NC(=O)CSc3n[nH]c(N)n3)n(-c3ccccc3)n2)cc1	11.4
C/C(=N\NC(N)=O)C1CC(Cc2ccccc2)C(=O)O1 (stereo not drawn)	7.84
O=C(CCc1ccc(O)c(O)c1)N/N=C/c1cc2c(cc1[N+](=O)[O-])OCO2	10
COc1c(C(=O)Nc2ccc(Cc3ccncc3)cc2)ccc2ccccc12	1.72
Cc1cccc(NC(=O)Nc2ccc(S(=O)(=O)Nc3onc(C)c3C)cc2)c1	4.15
O=C(Cn1nc(-c2ccc(Cl)cc2)ccc1=O)NCC1COCCO1 (stereo not drawn)	6.48
C=CCNC(=O)COc1ccc(S(=O)(=O)NC2CCCCC2)cc1	2.67
O=C(COC(=O)Cc1c(F)cccc1Cl)NCCC1=CCCCC1	-7.61
Cc1cccc(N2C(=O)c3cccnc3C2=O)c1	12
O=C(CCCCCNC(=O)N1CCn2c1nc1ccccc12)NCc1ccccc1	-12.3
COc1cc(CNc2ccc(S(N)(=O)=O)cc2)ccc1OCC(=O)NC1CCCCC1	25.8
Cc1ccc(S(=O)(=O)c2nc(C)oc2NCc2ccccc2)cc1	24.2
COc1ccc(O)c(C=Nc2cc(C)on2)c1	-0.2
CC[C@H]1C2C[C@H]3[C@@H]4N(C)c5ccccc5C45C[C@H](C2[C@H]5O)N3[C@@H]1O (stereo partly drawn)	-43.8
CS(=O)(=O)c1ccccc1C(=O)Nc1ccc(-c2nc3ccccc3o2)cc1	2.48
CCOC(=O)N1CCN(C(=O)CN(c2cccc(C(F)(F)F)c2)S(C)(=O)=O)CC1	-51.1
CCCCCC/C=C/c1ccc(OC)c([C@H]2[C@H]3C=CC[C@@H](C)[C@@H]3C(=O)N2Cc2ccccc2)c1	11.5
COc1ccc(C(=O)N2CCc3cc4c(cc3C2C)OCCCO4)cc1 (stereo not drawn)	3.35
Brc1ccc(OCc2nc3ccccc3[nH]2)cc1	13.9

Structure (SMILES)	hERG current change (%, negative = inhibition) at 10uM [%]
O=C(O)CSCNC(=O)CC12CC3CC(CC(C3)C1)C2	13.1
COc1ccc(NC(=O)NNS(=O)(=O)c2cc(C)ccc2C)cc1OC	5.36
COc1ccccc1C(=O)NCCC(=O)N1CC=C(c2ccccc2)CC1	-13.4
C#CCn1c(O)c(N=NC(=O)CNC(=O)/C=C/c2ccccc2)c2ccccc21	-27.4
Cc1sc2ncnc(N3CCC(C(=O)NNC(=O)COc4cccc(C(F)(F)F)c4)CC3)c2c1C	-40
O=C(c1ccc(Cl)cc1)N1CCOc2ccccc21	1.12
CCN(CC(=O)Nc1ccc(NC(C)=O)cc1)C(=O)c1ccc(=O)[nH]c1	15.4
O=C(C1=C[C@@H](C2CC2)C[C@@H](OCc2ccc(CO)cc2)O1)N1CCOCC1	15.2
COc1ccc(NC(=O)C2=CC(c3ccc(OC)cc3)=NS(=O)(=O)N2C)cc1	-0.449
CCN(CC)S(=O)(=O)c1ccc(N/N=C(\C)c2ccc3c(c2)OCO3)c([N+](=O)[O-])c1	11.6
CSc1ccc(CCNC(=O)c2cc(C)nn2-c2ccccc2)cc1	-10.8
COC(=O)c1cc(C)[nH]c2c(C)cc3nc4ccccc4c3c12	19.7
O=C(c1ccc2c3c(cccc13)CC2)C1CCCN(C(=O)c2ccc(=O)[nH]c2)C1 (stereo not drawn)	4.99
NC(=O)C1CCCN(C(=O)c2cccc(S(=O)(=O)N3CCCCCC3)c2)C1 (stereo not drawn)	4.09
CCC(C)N=Cc1c(O)n(-c2ccccc2)c(=O)[nH]c1=O (stereo not drawn)	2.37
CCc1nnc(NC(=O)CSc2nnc(CNC(=O)c3ccccc3F)n2C)s1	45.3
O=C(O)C1CN(c2nc(Cl)ccc2[N+](=O)[O-])C1	12.1
S=C(NCc1ccco1)Nc1ccc(Oc2ccccc2)cc1	1.09
Cc1cc(Br)ccc1NC(=S)NC1CCCC1	-6.93
O=C(c1ccc(Oc2ccc(C(F)(F)F)cn2)cc1)N1CCN(c2ccccc2)CC1	-43.8
O=C(OCc1nc2ccccc2s1)C1CCN(S(=O)(=O)c2cccs2)CC1	-42.1

From article PMC4336329 (PLoS ONE, 2015)
